This is an account of results in ChEMBL document CHEMBL4888484, “Replenishing the malaria drug discovery pipeline: Screening and hit evaluation of the MMV Hit Generation Library 1 (HGL1) against asexual blood stage Plasmodium falciparum ,using a nano luciferase reporter read-out” (2022).

Screen size: about 150,000 compounds; about 540 (0.36%) showed an effect of 50% or more. The list shows a part of the results.

The test deals with Plasmodium falciparum. Briefly: Primary screen in NF54 nanoGlo assay, in single point, at 2uM, 72h; a lower Z score goes with more inhibition. It counts as functional, Erythrocyte. The settings on record: timepoint 72 hour.
Usually % Inhibition stands for the drop in the measured response relative to a control, in per cent. As for `CCc1ccccc1NC(=O)CN1C(=O)CCn2nc(-c3cn(C)c4ccccc34)cc21`, the “% Inhibition” value is on record as 1% and the Z score is -0.23.

In the case of `COCCN(Cc1ccnn1C)C(=O)C1COC(C)C1` (centres undefined), the “% Inhibition” value is recorded as -7% and the Z score amounted to 0.7.

For `CCc1nc(C)c(C(=O)N(Cc2ccco2)C[C@H]2CCCO2)o1`, the “% Inhibition” value is on record as -6% and the Z score is given as 0.57.

Take `Cc1n[nH]c(C)c1[C@@H](N)C(=O)NCCc1c[nH]c2ccccc12`: the “% Inhibition” value is -2% and the Z score stood at 0.39.

With `COc1ccc(C(=O)N2CCc3ccc(C(=O)NCc4cccnc4)cc32)cc1`, the “% Inhibition” value is listed as -10% and the Z score stood at 1.19.

With `O=C(CN1N=C(c2ccccc2)c2ccccc2S1(=O)=O)NCc1ccc2c(c1)OCO2`, the “% Inhibition” value is listed as -2% and the Z score was 0.28.

Turning to `CCC1(CNC(=O)Nc2csnc2C)CC1`, the “% Inhibition” value was -18% and the Z score is given as 2.36.

`Cc1ccc(CS(=O)(=O)N2CC[C@H](c3cc(C)ccn3)C2)cc1`: the “% Inhibition” value is on record as -1% and the Z score is reported as 0.18.

Regarding `Cc1ncsc1C(=O)NC1CCN(C(=O)c2ccc(O)c(Cl)c2)CC1`, the “% Inhibition” value is on record as -4% and the Z score came out at 0.33.

Consider `Cc1cc(CNCCC(=O)N2CCCC2)ccc1Br`, for which the “% Inhibition” value is on record as -3% and the Z score is given as 0.25.

`O=C(C[C@H]1CCN(S(=O)(=O)c2ccc(F)cc2F)C1)NCc1ccccc1`: the “% Inhibition” value was determined as 45% and the Z score is -6.54.

Take `CCC[C@H]1CN(c2nccc(C(F)(F)F)n2)C[C@@H]1N`: the “% Inhibition” value is on record as -7% and the Z score is 1.25.

For `Cc1cc(CN2Cc3nc(C4CC4)nc(O)c3C2)on1`, the “% Inhibition” value was 2% and the Z score is recorded as -0.32.

With `COc1ccc(CN2C(=O)COC[C@H]2C(=O)NCc2cccc(F)c2)cc1OC`, the “% Inhibition” value is -10% and the Z score was determined as 1.16.

Take `CC(C)n1cc(CN2CC[C@]3(O)CCN(C(=O)C4CCC4)C[C@@H]3C2)cn1`: the “% Inhibition” value was -3% and the Z score came out at 0.38.

With `Cc1ccncc1NC(=O)C[C@H]1COCCN1Cc1coc(-c2ccccc2)n1`, the “% Inhibition” value was -9% and the Z score turned out to be 0.89.

As to `CCN(CCNC(=O)Nc1cn(CC(C)C)c(=O)c2ccccc12)Cc1ccccc1`, the “% Inhibition” value was 2% and the Z score is reported as -0.34.

Consider `CC(C)(C)OC(=O)c1cccc(CNc2nccnc2C#N)c1`, for which the “% Inhibition” value came out at 1% and the Z score was -0.2.

Turning to `O=C(CC1CC1)N(Cc1ccncc1)C1CC1`, the “% Inhibition” value is listed as -2% and the Z score was 0.34.

`C[C@]1(C(N)=O)CCN(C(=O)c2ccc(Nc3nccs3)cc2F)C1`: the “% Inhibition” value worked out at 7% and the Z score is given as -1.18.

As for `COCCNC(=O)CN1CN(c2ccccc2)C2(CCN(C(=O)c3ccc(OC)cc3OC)CC2)C1=O`, the “% Inhibition” value is listed as -9% and the Z score came to 1.59.

For the compound `COc1ccccc1CNC(=O)[C@]1(C)Cn2nc(-c3ccccc3)cc2C(=O)N1Cc1ccccc1`, the “% Inhibition” value is on record as 6% and the Z score is recorded as -1.02.

Consider `Cc1ccc(C(=O)NC[C@H]2CCOC2)nn1`, for which the “% Inhibition” value was found to be 4% and the Z score is on record as -0.57.

Regarding `COc1ccc(CCn2c(-c3c(OC)ccc4ccccc34)nc3cc(Cl)ccc3c2=O)cc1`, the “% Inhibition” value amounted to 10% and the Z score was -1.1.

`O=C1[C@H]2CCCC2=NN1c1ccc(Cl)cc1Cl`: the “% Inhibition” value was -4% and the Z score was 0.83.

With `Cc1cnc(CCNC(=O)CC2CCCC2)n1C1CCCCCC1`, the “% Inhibition” value is -11% and the Z score was 1.62.

In the case of `CCN(C(=O)c1ccc[nH]1)[C@@H](C)c1cc2ccccc2o1`, the “% Inhibition” value is given as -8% and the Z score is listed as 0.8.

`O=C(N[C@@H]1CC[C@H]2CCOc3ccccc3C(=O)N3CCN(C4CCOCC4)C[C@H]3C(=O)NC[C@H]1O2)C1CCOCC1`: the “% Inhibition” value is reported as -7% and the Z score came to 1.06.

As to `CCOC1CC(N(C)C(=O)c2ccnc(C)n2)C1(CC)CC` (centres undefined), the “% Inhibition” value turned out to be 0% and the Z score is reported as 0.06.

In the case of `COc1ccc(OC)c(CNC(=O)c2ccccc2NC(=O)c2nsc3ccccc23)c1`, the “% Inhibition” value was -11% and the Z score turned out to be 1.91.

With `Cc1c(Br)c(-c2nnc(Cc3cccc(Cl)c3)o2)nn1C`, the “% Inhibition” value is -1% and the Z score is 0.15.

As to `CCN1CCN(C(=O)C[C@H]2c3ncccc3C(=O)N2c2cccc(C)c2)CC1`, the “% Inhibition” value is recorded as -13% and the Z score is listed as 2.36.

As for `Cc1ccc(C(=O)N2CCC[C@H](n3cc(-c4nc(C(C)C)no4)nn3)C2)cc1`, the “% Inhibition” value turned out to be 0% and the Z score is 0.05.

For `CN(CC(=O)Nc1sc2c(c1C#N)CCCCC2)Cc1cc[nH]n1`, the “% Inhibition” value is listed as -14% and the Z score came out at 2.37.

Regarding `CC(=O)c1sc(NC(=O)Cc2c(C)nn(C)c2C)nc1-c1ccccc1`, the “% Inhibition” value is -1% and the Z score is 0.16.

Regarding `Cc1ccc(C)n1-c1ccc(Cl)c(C(=O)NCc2ccccn2)c1`, the “% Inhibition” value is reported as -9% and the Z score was found to be 1.19.

`O=C(c1ccncc1)N1CCC(F)(F)[C@@H](COCc2ccccc2)C1`: the “% Inhibition” value is on record as -4% and the Z score is recorded as 0.66.

Take `CC(C)N1C[C@@H]2C[C@H]1C(=O)NC[C@H]1O[C@H](CCOc3ccccc3C(=O)N2)CC[C@H]1NS(C)(=O)=O`: the “% Inhibition” value worked out at 21% and the Z score is recorded as -2.49.

With `COc1ccc(N(C)CCNS(C)(=O)=O)cc1`, the “% Inhibition” value is given as -5% and the Z score was found to be 0.65.

With `COc1ccc(N/N=C2/Nc3ccc(C)cc3C2=O)cc1`, the “% Inhibition” value is listed as -8% and the Z score is on record as 1.13.

As for `Cc1noc2nc(C3CC3)cc(C(=O)N3CCO[C@@H](CC(=O)O)C3)c12`, the “% Inhibition” value was 0% and the Z score is -0.05.

Turning to `O=S(=O)(Nc1nc2ccccc2nc1N1CCCCCC1)c1cc(Cl)ccc1Cl`, the “% Inhibition” value is -2% and the Z score is on record as 0.31.

Regarding `CN1CCCc2c(c3ccccc3n2CCC(=O)O)C1`, the “% Inhibition” value was -13% and the Z score came to 1.7.

For the compound `O=S(=O)(c1cncc(F)c1)N(C1CC1)C1COC1`, the “% Inhibition” value is -3% and the Z score is recorded as 0.23.

With `CN1C(=O)[C@]2(c3ccccc31)[C@H](C(N)=O)C[C@@H]1CCCN12`, the “% Inhibition” value was -14% and the Z score was determined as 1.81.

For the compound `O=C(NCc1ccc(-n2cncn2)nc1)c1ccccn1`, the “% Inhibition” value is given as -11% and the Z score is 1.03.

As to `FC(F)(F)c1nnc2ccc(N(CC3CC3)CC3CC3)nn12`, the “% Inhibition” value was -10% and the Z score was found to be 1.47.

Regarding `O=C(Nc1ccc(Oc2ccc3ccccc3c2Cl)c(Cl)c1)c1ccc2c(c1)OCO2`, the “% Inhibition” value is on record as -16% and the Z score stood at 1.73.

For `CN1CCOC2CN(C(=O)c3c(F)ccc(F)c3F)CC21` (centres undefined), the “% Inhibition” value is listed as -1% and the Z score was 0.09.

Consider `CC(C)(C)c1ccc(NC(=O)[C@@H]2CCCCS2(=O)=O)cc1`, for which the “% Inhibition” value was -10% and the Z score came to 1.25.

Turning to `CCC[C@H](C)c1nc(N2CCN(C(=O)c3ccco3)CC2)c2c(C)nn(-c3ccc(F)cc3)c2n1`, the “% Inhibition” value is listed as -13% and the Z score was 2.02.

Regarding `C[C@@H](CCc1ccco1)Nc1nc(-c2ccccn2)no1`, the “% Inhibition” value is given as -6% and the Z score was 0.84.

Turning to `CC(C)[C@H]1C[C@@H]1NC(=O)c1ocnc1C1CC1`, the “% Inhibition” value is listed as -12% and the Z score is on record as 1.58.

As to `COc1cccc(CNC2CCN(c3ncnc4[nH]cnc34)CC2)c1OC`, the “% Inhibition” value is recorded as 17% and the Z score is given as -2.91.

With `O=C1O[C@H](C(=O)N2CCN(c3ccccc3)CC2)Cc2ccccc21`, the “% Inhibition” value was -7% and the Z score is 1.1.

`Cn1nc(CN2CCCc3occc3C2)[nH]c1=O`: the “% Inhibition” value is reported as -14% and the Z score turned out to be 2.68.

As for `CCC(CC)C(=O)Nc1ccc(Br)cn1`, the “% Inhibition” value is reported as 0% and the Z score was -0.03.

As to `C=CCNC(=O)[C@H]1CC(=O)N(c2ccc(OCC(=O)NCc3ccccc3)cc2)C1`, the “% Inhibition” value is -13% and the Z score was 1.74.

Turning to `CCOC(=O)[C@@H]1CCCCN1Cc1nc(N2CCCN(C(C)=O)CC2)c2cccc(C)c2n1`, the “% Inhibition” value was -10% and the Z score amounted to 1.76.

As for `COc1ccc(CNc2nc(-c3nnc(-c4ccccc4)o3)nc3ccccc23)cc1`, the “% Inhibition” value is listed as 55% and the Z score is -10.02.

For the compound `O=C(NC1CCCCCCC1)c1cc(S(=O)(=O)N2CCCC2)c[nH]1`, the “% Inhibition” value was -21% and the Z score turned out to be 1.99.

As to `Nc1c(Br)cc(Br)cc1C(F)(F)F`, the “% Inhibition” value is given as -6% and the Z score worked out at 0.83.

Consider `O=C(OCC(=O)N1CCC(Cc2ccccc2)CC1)c1ccccc1Oc1ccccc1`, for which the “% Inhibition” value was -3% and the Z score is 0.3.

Turning to `O=C(CCC1CCCCC1)N1CC[C@H]2C(=O)N(Cc3ccccc3)CC(=O)N2CC1`, the “% Inhibition” value was 1% and the Z score is -0.15.

For the compound `O=C(Cn1cnc(-c2ccccc2)n1)N1CCOCC1`, the “% Inhibition” value is given as -13% and the Z score is 2.33.

For the compound `Cc1nc(C(=O)N2CC3CCC2C3)cs1` (centres undefined), the “% Inhibition” value was -8% and the Z score is given as 1.07.

As for `COc1cccc(C(=O)NC[C@@]2(COc3cccnc3)C[C@@H](O)[C@@H](O)C2)c1`, the “% Inhibition” value was determined as 22% and the Z score is given as -2.57.

For `CCn1nc([C@H]2CCOC2)nc1-c1cnc(C2CC2)[nH]c1=O`, the “% Inhibition” value was -1% and the Z score was found to be 0.13.

As to `CCOC(=O)[C@@]1(NCc2nnc(C(C)C)o2)CCc2ccccc21`, the “% Inhibition” value was -12% and the Z score was 1.07.

In the case of `CCCn1ncc(C(=O)N2CC[C@@H]3OCc4cccc(c4)Oc4cccc(c4)CC(=O)N(CC)CC(=O)N[C@H]3C2)c1C`, the “% Inhibition” value is listed as 19% and the Z score is on record as -2.62.

Turning to `COc1cccc(C(=O)C[n+]2cc(-c3ccc(Cl)cc3)n(C)c2N)c1`, the “% Inhibition” value was -6% and the Z score was 0.83.

On to `COCC(NC1CCC2C(C#N)CC1N2Cc1ccccc1)C1CC1` (centres undefined), for which the “% Inhibition” value was 9% and the Z score is -1.62.

With `C=CC[C@]1(CO)CCCN(c2nccc3ccccc23)C1`, the “% Inhibition” value is -17% and the Z score was 2.18.

With `CCCn1c(C)cnc1CC1CCN(C(=O)c2ccn(CC)n2)CC1`, the “% Inhibition” value is -6% and the Z score came to 0.92.

With `COC[C@@H]1CN(S(=O)(=O)c2ccc(F)cc2)C[C@H]1c1nc(C)no1`, the “% Inhibition” value is given as -6% and the Z score turned out to be 1.06.

As for `CC(C)[C@H](NC(=O)c1cc(Br)ccc1-n1cnnn1)c1nc2ccccc2n1C`, the “% Inhibition” value is listed as -1% and the Z score was 0.1.

As to `CC(C)(C)c1ccc(S(=O)(=O)NCc2cncc(C#N)c2)s1`, the “% Inhibition” value is on record as -2% and the Z score is on record as 0.35.

In the case of `O=C(CCc1ccc(F)cc1)N[C@H]1CN(CCO)C[C@@H]1C1CC1`, the “% Inhibition” value is given as -6% and the Z score was determined as 1.06.

Regarding `COc1cc(-c2ncc(C(=O)NCCN(C)C)c(N(C)Cc3ccccc3)n2)cc(OC)c1OC`, the “% Inhibition” value is listed as -4% and the Z score is on record as 0.61.

`Cc1cn2cc(C(=O)N3CCn4nc(CO)cc4C3)ccc2n1`: the “% Inhibition” value is on record as -24% and the Z score amounted to 2.38.

`CN(C)c1noc(CNCc2c(F)cccc2OC(F)(F)F)n1`: the “% Inhibition” value stood at 10% and the Z score was -1.03.

As to `Cc1c(C2CC2)n[nH]c1NS(=O)(=O)c1ccccc1`, the “% Inhibition” value was -1% and the Z score is 0.15.
